# Assay results taken from the RNAGym collection of RNA variant scans (doi:10.1101/gad.245936.114).
# This sample is rich in variants without activity.
# B1: tRNA (parent)
# chain: CUCUCGGUAGCCAAGUUGGUUUAAGGCGCAAGACUUUAAUUUAUCACUACGAAAUCUUGAGAUCGGGCGUUCGACUCGCCCCCGGGAGAUUUUUUCCUCGAGCAA
# Variants of: B1
# Assay: nonsense suppression (GFP-seq) (ratio to wild type); higher = more function; SUP4oc tRNA, yeast GFP reporter sort-seq
# Summary of the method: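 Nonsense suppression (GFPSEQ) is the median GFP/RFP ratio of each sorting bin, weighted by the variant's estimated share of cells in that bin and expressed relative to the unmutated parent tRNA. Yeast strains carried genome-integrated variants of an ochre-suppressor tRNA from a library with ~3% random mutations, plus a galactose-driven GFP ochre reporter and RFP, and were grown in raffinose/galactose medium containing 80 mg/L adenine. Cells were sorted into GFP/RFP bins, each bin was Illumina-sequenced (phred ≥30), and variants were kept only with ≥100 reads and ≥30 cells.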
row,Variant,nonsense suppression
1,A9U C12A G19C G78A,≤ 0.026
2,A9U C12A U16A G73C G84C,≤ 0.026
3,A9U C12G,≤ 0.026
4,A9U C12G C77G C81A G84U G85U,≤ 0.026
5,A9U C12G U76C C77G,≤ 0.026
6,A9U C12U G84C,≤ 0.026
7,A9U C27U U35G C77A,≤ 0.026
8,A9U C29A A30C G86C,≤ 0.026
9,A9U C29A G67A A74G,≤ 0.026
10,A9U C29G A54C U70A C83U,≤ 0.026
11,A9U C34A C68A G69C,≤ 0.026
12,A9U C34A U35C,≤ 0.026
13,A9U C34G U55G U71A,≤ 0.026
14,A9U C81A,≤ 0.026
15,A9U C81G A87C,≤ 0.026
16,A9U G10A U55A,≤ 0.026
17,A9U G10C,≤ 0.026
18,A9U G10C A31G G88C,≤ 0.026
19,A9U G15A C27U U55C A60C,≤ 0.026
20,A9U G18C,≤ 0.026
21,A9U G19C G65C A74C,≤ 0.026
22,A9U G19C U21A U22G G65A,≤ 0.026
23,A9U G19U C27U,≤ 0.026
24,A9U G25C G66U G86C,≤ 0.026

row,Variant,nonsense suppression
1,A9U G25U G26C C64A G65A G73A,≤ 0.026
2,A9U G28U U76C G78U C81U,≤ 0.026
3,A9U G32A G66C,≤ 0.026
4,A9U G32U C34A,≤ 0.026
5,A9U G59U,≤ 0.026
6,A9U G59U C81G,≤ 0.026
7,A9U G61A,0.195
8,A9U G61U G73C,≤ 0.026
9,A9U G65U,≤ 0.026
10,A9U G66U A74G,≤ 0.026
11,A9U G67A C79G,≤ 0.026
12,A9U G67C,≤ 0.026
13,A9U G69U,≤ 0.026
14,A9U G78A,0.0365
15,A9U G88C,≤ 0.026
16,A9U U16A,0.13
17,A9U U16A C27A C56U G78A,≤ 0.026
18,A9U U16A C29U A31U A33G A62C,≤ 0.026
19,A9U U20C A23C G59U G66A,≤ 0.026
20,A9U U20C A30C U71G,≤ 0.026
21,A9U U20C G25U U71A,≤ 0.026
22,A9U U20C G65A,≤ 0.026
23,A9U U20G,0.12
24,A9U U20G U21C,≤ 0.026

row,Variant,nonsense suppression
1,A9U U21A A54G G69U U76G,≤ 0.026
2,A9U U21A G65C,≤ 0.026
3,A9U U21C G67C C79G,≤ 0.026
4,A9U U21C U55A,≤ 0.026
5,A9U U21G A54C,≤ 0.026
6,A9U U22G G25U A33U,≤ 0.026
7,A9U U57A,≤ 0.026
8,A9U U57A U63C,≤ 0.026
9,A9U U57G G65C C80A,≤ 0.026
10,A9U U63G U76A,≤ 0.026
11,A9U U76A,≤ 0.026
12,G10A,≤ 0.026
13,G10A A13U U57A,≤ 0.026
14,G10A A14C,≤ 0.026
15,G10A A23U A60C G61C,≤ 0.026
16,G10A A23U G67C G86A,≤ 0.026
17,G10A A31C,≤ 0.026
18,G10A A60C G66C G78A,≤ 0.026
19,G10A A60G C82U,≤ 0.026
20,G10A A60G U63G U76A C80G A89G,≤ 0.026
21,G10A A60U C68A,≤ 0.026
22,G10A A62C A87G,≤ 0.026
23,G10A A62U,≤ 0.026
24,G10A C11A,≤ 0.026

row,Variant,nonsense suppression
1,G10A C11G,≤ 0.026
2,G10A C11G A23G,≤ 0.026
3,G10A C11G G26C U57G U63A,≤ 0.026
4,G10A C11G G32A U35G,≤ 0.026
5,G10A C11U G26U,≤ 0.026
6,G10A C12G,≤ 0.026
7,G10A C12U C34A A74U,≤ 0.026
8,G10A C27G G32U C56U,≤ 0.026
9,G10A C27G U57A,≤ 0.026
10,G10A C29G A54G,≤ 0.026
11,G10A C34A,≤ 0.026
12,G10A C34G U70C,≤ 0.026
13,G10A C56U G73A,≤ 0.026
14,G10A C72A C80A,≤ 0.026
15,G10A C75G,≤ 0.026
16,G10A C77U,≤ 0.026
17,G10A C80U,≤ 0.026
18,G10A G15C A24U A54U A87U,≤ 0.026
19,G10A G15U A23U G25A G85C,≤ 0.026
20,G10A G18C A30U,≤ 0.026
21,G10A G19A G32C C79G C83U,≤ 0.026
22,G10A G32U U55A,≤ 0.026
23,G10A G61A C81G A89G,≤ 0.026
24,G10A G66C,≤ 0.026

row,Variant,nonsense suppression
1,G10A G66U C82G,≤ 0.026
2,G10A G78U A89C,≤ 0.026
3,G10A G84U,≤ 0.026
4,G10A U16C U17G,≤ 0.026
5,G10A U16G A23G G28U A33U,≤ 0.026
6,G10A U16G A24U G59U G69A,≤ 0.026
7,G10A U16G A54C,≤ 0.026
8,G10A U17A U58A U71C,≤ 0.026
9,G10A U17G A33U,≤ 0.026
10,G10A U20A G86U,≤ 0.026
11,G10A U20G C68A,≤ 0.026
12,G10A U21G A31C,≤ 0.026
13,G10A U21G C68U,≤ 0.026
14,G10A U22C U57C,≤ 0.026
15,G10A U55C A60G,≤ 0.026
16,G10A U57A,≤ 0.026
17,G10A U57C U58C G85C,≤ 0.026
18,G10A U57G G61A G66U,≤ 0.026
19,G10A U58A A60U A62G C72A,≤ 0.026
20,G10A U58A C80A,≤ 0.026
21,G10A U58G G85A G86A,≤ 0.026
22,G10A U58G U76G,≤ 0.026
23,G10A U63A,≤ 0.026
24,G10A U63C,≤ 0.026

row,Variant,nonsense suppression
1,G10A U63G,0.0314
2,G10C,≤ 0.026
3,G10C A14G,≤ 0.026
4,G10C A23U U63A C68U,≤ 0.026
5,G10C A24G G25C A33G,≤ 0.026
6,G10C A24U U55G A89U,≤ 0.026
7,G10C A30C G66U,≤ 0.026
8,G10C A30G A60U,≤ 0.026
9,G10C A54G,≤ 0.026
10,G10C A60U C64G,≤ 0.026
11,G10C A62G,≤ 0.026
12,G10C A62U G67A G73A,≤ 0.026
13,G10C A74C,≤ 0.026
14,G10C A87C A89U,≤ 0.026
15,G10C A89G,≤ 0.026
16,G10C C11U C72A,≤ 0.026
17,G10C C11U U20C C64U,≤ 0.026
18,G10C C11U U22C A31C G85C,≤ 0.026
19,G10C C12A C82G,≤ 0.026
20,G10C C12U,≤ 0.026
21,G10C C27A A62C,≤ 0.026
22,G10C C27G C29U U63C,≤ 0.026
23,G10C C27U,≤ 0.026
24,G10C C29G C79U,≤ 0.026

row,Variant,nonsense suppression
1,G10C C29U G86A,≤ 0.026
2,G10C C34A,≤ 0.026
3,G10C C34G,≤ 0.026
4,G10C C34G G65A,≤ 0.026
5,G10C C64G,≤ 0.026
6,G10C C72A,≤ 0.026
7,G10C C75U C83G G88C,≤ 0.026
8,G10C C77G,≤ 0.026
9,G10C C82A,≤ 0.026
10,G10C G15U A23U,≤ 0.026
11,G10C G15U A31U,≤ 0.026
12,G10C G15U A31U A87C,≤ 0.026
13,G10C G15U G18C A54G,≤ 0.026
14,G10C G15U U20C U57G U58G G65C G78A,≤ 0.026
15,G10C G18U C27G,≤ 0.026
16,G10C G19A U63C,≤ 0.026
17,G10C G19U C27U G67C,≤ 0.026
18,G10C G19U G59U C79G,≤ 0.026
19,G10C G28A A74C,≤ 0.026
20,G10C G28U C29U,≤ 0.026
21,G10C G28U C75G,≤ 0.026
22,G10C G32C,≤ 0.026
23,G10C G32U,≤ 0.026
